Source: PubChem BioAssay AID485313 (National Center for Advancing Translational Sciences (NCATS), 2010)
The whole screen tested about 320,000 compounds, of which about 7,600 (2.4%) were called active. The inconclusive results got no clear call from the source; some entries with a clear call stand among them for comparison. Calls follow the shape of the dose curve; as a rule, active = well fitted activation curve with a large enough effect; inconclusive = small, poorly fitted or top-dose-only effect; inactive = no such curve, though single readings can be large or run the other way. Potencies of inconclusive entries are left out as doubtful fits.

assay: qHTS Assay for NPC1 Promoter Activators; conditions: Huh7 NPC1 promoter luciferase reporter, 24 h; series mostly up to 9.22 µM; activation: at the top concentration; also: nearly all actives have a fitted effect of over 60% in size;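 as to activation: reporter is driven by a mutant NPC1 promoter; % of control where 0% means no effect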
How it was run: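 Quantitative HTS used a cell-based reporter: Huh7 cells stably bearing the NPC1 promoter upstream of luciferase were treated with compounds for 24 h, and promoter activation was read as luminescence.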
Potency is read from the fitted curve at half-maximal effect; tags tell the direction and shape of the fitted curve.

Structure (SMILES) | Potency | activation
Cn1cccc1/C=N/NC(=O)c1cc2ccccc2cc1O | inconclusive [activator, single point] | –
COc1cccc(NC(=O)N2CCC(NC(=O)c3ccco3)CC2)c1 | – | inactive: -7.19%
O=C(Nc1ccc(Cl)c(C(F)(F)F)c1)c1ccncc1 | – | inactive: -3%
CCC1CCCCN1C(=O)c1ccc([N+](=O)[O-])o1 (stereo not drawn) | – | inactive: 1.18%
N#CCC(=O)N/N=C\c1cc(Br)ccc1OC/C=C/c1ccccc1 | inconclusive [activator, single point] | –
O=C(Nc1nccs1)c1ccc(Cl)s1 | inconclusive [activator, partial curve] | –
CCOc1ccc2nc(N3CCC(C(=O)NCCCN4CCOCC4)CC3)sc2c1 | inconclusive [activator, single point] | –
NS(=O)(=O)c1cccc(NC(=O)COC(=O)Cc2ccc(Cl)cc2)c1 | – | inactive: -1.65%
CC1CCc2nc(/C(C#N)=C/c3cccnc3)sc2C1 (stereo not drawn) | inconclusive [activator, partial curve] | –
CN(C)c1ccc(NC(=O)Nc2ccc3snnc3c2)cc1 | inconclusive [activator, single point] | –
Oc1ccccc1-c1nnc(COc2ccccc2)o1 | – | inactive: 8.27%
Cc1ccc(C)c(NC(=O)c2cc(=O)c3ccccc3o2)c1 | inconclusive [activator, single point] | –
Cc1cc(/C=C2/C(=O)NN(c3ccccc3)C2=O)c(C)n1-c1ccc(O)cc1 | inconclusive [activator, full curve] | –
C=CCNc1nc(-c2ccc(OC)cc2OC)cs1 | active: 2.82 µM | –
Cc1ccccc1NC(=O)/C(C#N)=C/c1ccc(-c2ccc(Cl)c(C(=O)O)c2)o1 | active: 2.82 µM | –
C=CCOC(=O)/C(=C/c1cccc2ccccc12)NC(=O)c1ccccc1 | – | inactive: 10.2%
COCCNC(=O)/C(C#N)=C/c1ccc(C(=O)O)cc1 | – | inactive: -2.58%
O=C(Cc1ccccc1)NCCSCc1ccco1 | – | inactive: -0.813%
CC(C)(C)c1ccc(Cn2cnc(-c3ccc([N+](=O)[O-])cc3)c2)cc1 | inconclusive [activator, partial curve] | –
O=C1Nc2cc(C(=O)N3CCN(c4ccccn4)CC3)ccc2S/C1=C\c1ccccc1 | – | inactive: 0.3%
O=c1c2ccccc2cnn1-c1ccc2ccccc2c1 | active: 1.41 µM | –
CC(=O)Nc1ccc2nc(SCC(=O)Nc3ccc(N4CCOCC4)c(Cl)c3)sc2c1 | inconclusive [activator, partial curve] | –
Cc1cc(C)nc(Nc2nc3ccccc3[nH]2)n1 | inconclusive [activator, single point] | –
O=C(c1cc(-c2cccc(O)c2)on1)N1CCCCCC1 | inconclusive [activator, single point] | –
O=C(Nc1nc2ccccc2s1)c1ccc(Cl)s1 | active: 1 µM | –
Cc1ccc(CSc2nnc(C)c(=O)[nH]2)cc1 | – | inactive: -7.6%
CN(C)C(=S)Nc1nc2ccccc2s1 | inconclusive [activator, partial curve] | –

Structure (SMILES) | Potency | activation
O=C(/C=C\Nc1ccc(Br)cc1)c1cccnc1 | active: 1.78 µM | –
Cc1nn(CC(O)Cn2cnc3c2c(=O)n(C)c(=O)n3C)c(C)c1Br (stereo not drawn) | – | inactive: -6.45%
O=C(N/N=C/c1cccnc1)c1ccc([N+](=O)[O-])cc1 | – | inactive: -3.98%
Clc1ccsc1-c1ccc2ccccc2n1 | inconclusive [activator, single point] | –
Cc1ccc(C(=O)/C=C/Nc2cccc(O)c2)cc1 | – | inactive: 27.9%
COc1c(C(=O)Nc2nnc(C3CC3)s2)csc1Cl | active: 4.47 µM | –
Nc1nc(COc2ccc(Cl)cc2)cs1 | inconclusive [activator, single point] | –
Cc1cc(/C=N/NC(=O)c2cccnc2)c(C)n1CC(C)C | inconclusive [activator, single point] | –
Cc1nc(/N=C(\N)Nc2ccccc2)nc2ccccc12 | inconclusive [activator, single point] | –
NC(=O)COc1ccc2cc(-c3ccc(F)cc3)c(=O)oc2c1 | inconclusive [activator, partial curve] | –
COc1ccc(CNc2nc3ccccc3s2)cc1OC | inconclusive [activator, partial curve] | –
O=C(Nc1ccccn1)c1ccc(C(=O)Nc2ccccn2)cc1 | inconclusive [activator, single point] | –
Fc1ccc(/C=N/Nc2nc3ccccc3[nH]2)cc1F | inconclusive [activator, single point] | –
c1ccc(CN2CCN(c3cnc4ccccc4n3)CC2)cc1 | inconclusive [activator, single point] | –
O=C(Oc1ccc2ccccc2c1Cl)N1CCCCCC1 | active: 1.12 µM | –
O/C(=C\c1nc2ccccc2[nH]1)c1cccs1 | active: 3.55 µM | –
Cn1cc(C(=O)N/N=C/c2ccc3c(c2)OCO3)c2ccccc21 | inconclusive [activator, partial curve] | –
Cc1ccc2nc(/C(C#N)=C\c3ccc(N4CCOCC4)o3)[nH]c2c1 | active: 2.24 µM | –
COc1cc(NC(=O)c2ccccc2Cl)ccc1NC(=O)c1ccco1 | active: 2.51 µM | –
CCCCn1c(N)c(N(CC(C)C)C(=O)c2c(CC)noc2C)c(=O)[nH]c1=O | – | inactive: 0.406%
N/C(=N\OC(=O)CCC1CCCCC1)c1ccccn1 | inconclusive [activator, single point] | –
COc1ccc(C(=O)CCNc2ccc3c(c2)OCCO3)cc1 | inconclusive [activator, single point] | –
CCCCOC(=O)c1ccc(-c2ccc(/C=N/NC(=S)NCC)o2)cc1 | inconclusive [activator, partial curve] | –
O=[N+]([O-])c1ccc(S(=O)(=O)N2CCN=C2SCc2ccc(F)cc2)cc1 | – | inactive: 2.2%
Cc1cccc(OCCOCCSc2ncccn2)c1 | – | inactive: 10.1%
COc1ccc(NC(=O)c2nc3nccc(C)n3n2)cn1 | inconclusive [activator, partial curve] | –
